The record followed here is PubChem BioAssay AID1745853 (National Center for Advancing Translational Sciences (NCATS), 2022).

Some of the results follow. The main result of the screen is listed elsewhere. These columns were measured beside it and carry no call.

Common to all, as to assay: Primary Screen for Target Class Profiling of Small Molecule Inhibitors of Methyltransferases
In experiment [1] the target is Glycine N-methyltransferase (Homo sapiens) (UniProt Q14749). The settings on record: purified enzyme, MTase-Glo SAH luminescence; measured here: GNMT inhibition; at 40 µM; stronger effect = lower value. In short, it runs like this:
(§1)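 Each enzyme was assayed with SAM and its substrate. SAH formation detected by MTase-Glo luminescence; single-point 40 uM screen[…].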

Experiment [2] concerns the target Guanidinoacetate N-methyltransferase (Homo sapiens) (UniProt Q14353). As to conditions: purified enzyme, MTase-Glo SAH luminescence; measured here: GAMT inhibition; at 40 µM; stronger effect = lower value. The method, boiled down: as §1
Experiment [3] has as its target Histamine N-methyltransferase (Homo sapiens) (UniProt P50135). The settings on record: purified enzyme, MTase-Glo SAH luminescence; measured here: HNMT inhibition; at 40 µM; stronger effect = lower value. The method, boiled down: as §1
The target in experiment [4] is Nicotinamide N-methyltransferase (Homo sapiens) (UniProt P40261). As to conditions: purified enzyme, MTase-Glo SAH luminescence; measured here: NNMT inhibition; at 40 µM; stronger effect = lower value. The method, boiled down:
as §1

The target in experiment [5] is Phenylethanolamine N-methyltransferase (Homo sapiens) (UniProt P11086). The settings on record: purified enzyme, MTase-Glo SAH luminescence; measured here: PNMT inhibition; at 40 µM; stronger effect = lower value. In short, it runs like this:
as §1
% is scaled to controls: 0 for no effect and ±100 for the full control effect.

With `C[C@@H]1CN(C(=O)c2ccc(-c3ccn[nH]3)cc2)CC[C@@]1(O)C1CCOCC1`, the activity change, negative = inhibition is -5.06% in experiment [1]; -7.25% in experiment [2]; -3.14% in experiment [3]; -4% in experiment [4]; 10.5% in experiment [5].

For `Cc1ccc(CCN2C(=O)c3cc4ccccc4n3CC2(C)C(=O)NC2CCCC2)cc1` (stereo not given), the activity change, negative = inhibition was 4.83% in experiment [1]; 7.62% in experiment [2]; 7.34% in experiment [3]; 6.22% in experiment [4]; 3.48% in experiment [5].

As to `O=C(NCc1cccnc1)c1ccc2c(=O)nc3c(-c4ccc(Cl)cc4)n[nH]n3c2c1`, the activity change, negative = inhibition in experiment [1] was -11.2%; in experiment [2] it was -0.431%; in experiment [3], 1.94%; in experiment [4], 1.03%; in experiment [5], -2.73%.

As for `C[C@H](NC(=O)/C(C#N)=C/c1ccc(O)c(O)c1)c1ccccc1`, the activity change, negative = inhibition in experiment [1] is -20.6%; in experiment [2], 2.86%; in experiment [3] it was -1.31%; in experiment [4] it was -43.3%; in experiment [5], 9.9%.

As for `CC(C)CCn1c(=O)c2ccc(C(=O)NC3CCCCC3)cc2n2c(=O)n(CC(N)=O)nc12`, the activity change, negative = inhibition in experiment [1] was -2.99%; in experiment [2], -1.21%; in experiment [3] it was -1.12%; in experiment [4] it was -3.39%; in experiment [5], -4.04%.

On to `Cc1ncc2n1C(=O)N(C1CCN(C(=O)NC3CCCC3)CC1)C2`, for which the activity change, negative = inhibition in experiment [1] was -6.47%; in experiment [2], -9.6%; in experiment [3], -3.09%; in experiment [4] it was -20.7%; in experiment [5], -11.3%.

As to `CNC(=O)c1[nH]nc2c1C(c1cc(OC)ccc1-n1cccn1)CC(=O)N2` (stereo not given), the activity change, negative = inhibition in experiment [1] was -4.28%; in experiment [2] it was 1.06%; in experiment [3], 1.27%; in experiment [4], -0.665%; in experiment [5], -3.71%.

For `O=C(N[C@@H]1CN(C(=O)Nc2ccc(F)cc2)CCC[C@H]1O)c1ccc(OCCN2CCCC2)cc1`, the activity change, negative = inhibition in experiment [1] is -3.96%; in experiment [2], -5.86%; in experiment [3] it was -5.89%; in experiment [4] it was -7.74%; in experiment [5] it was -6.05%.

Consider `COc1cc2nc(N3CCN(C(=O)c4ccco4)C4CCCCC43)nc(N)c2cc1OC` (stereo not given), for which the activity change, negative = inhibition was -68% in experiment [1]; -22.1% in experiment [2]; -40.1% in experiment [3]; -49.6% in experiment [4]; -7.66% in experiment [5].

As for `CCCn1c(=O)c2ccc(C(=O)NC3CCCCC3)cc2n2c(=O)n(CC(=O)NC(C)C)nc12`, the activity change, negative = inhibition amounted to 10.9% in experiment [1]; 3% in experiment [2]; 13.3% in experiment [3]; 10.1% in experiment [4]; 7.26% in experiment [5].

With `Cc1ccc(N2C(=O)c3ccc(-c4ccco4)n3CC2(C)C(=O)NCc2ccccc2)cc1` (stereo not given), the activity change, negative = inhibition in experiment [1] was -11.2%; in experiment [2] it was 4.47%; in experiment [3], 2.07%; in experiment [4], -1.87%; in experiment [5], -3.15%.

As to `Cn1c(=O)c2ccc(C(=O)NC3CCCCC3)cc2n2c(SCc3cccc(F)c3)nnc12`, the activity change, negative = inhibition in experiment [1] was -1.34%; in experiment [2], 4.6%; in experiment [3], 1.04%; in experiment [4], -0.096%; in experiment [5], 0.703%.

`O=C(O)/C=C/c1ccc(-c2ccc(O)c(C34CC5CC(CC(C5)C3)C4)c2)cc1`: the activity change, negative = inhibition in experiment [1] was -58.6%; in experiment [2], 2.08%; in experiment [3], -2.9%; in experiment [4], -88.8%; in experiment [5] it was -49.8%.

Consider `CN1CCCC2(C1)CN(C)c1ccc(C(=O)NCC3CCCCC3)cc12` (stereo not given), for which the activity change, negative = inhibition is -4.31% in experiment [1]; -4% in experiment [2]; -82.6% in experiment [3]; -13.9% in experiment [4]; -0.546% in experiment [5].

With `CCN(CC)c1ccc(NS(=O)(=O)c2ccc3[nH]c4c(c3c2)CCCC4)c(C)c1`, the activity change, negative = inhibition is 4.49% in experiment [1]; -6.54% in experiment [2]; -1.87% in experiment [3]; -5.47% in experiment [4]; -0.969% in experiment [5].

With `CC(=O)Nc1c2n(c3ccccc13)CC(C)(C(=O)NC1CCCC1)N(Cc1ccco1)C2=O` (stereo not given), the activity change, negative = inhibition in experiment [1] is -4.97%; in experiment [2], -0.374%; in experiment [3] it was 2.25%; in experiment [4] it was 3.23%; in experiment [5], 1.85%.

In the case of `CC(C)(C)c1cc(/C=C(\C#N)C(N)=S)cc(C(C)(C)C)c1O`, the activity change, negative = inhibition in experiment [1] is -58.9%; in experiment [2], -14.3%; in experiment [3], -37.9%; in experiment [4], -20.5%; in experiment [5], -24.3%.
